Results reported in PubChem BioAssay AID1346428 (National Center for Advancing Translational Sciences (NCATS), 2018).
Where “and” joins values, the source holds several entries; their conditions need not be identical. Equal entries are not always repeated. The campaign covered roughly 48,000 compounds. About 1,200 (2.5%) were called active. Not shown: some 2% with an inconclusive outcome.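 Rule for the calls: active = activation of at least 60% and not above a set upper limit (about 1 call in 100 departs from these limits); inconclusive = activation of 40% to 60%, or above that upper limit; inactive = activation under 40%.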 The list shows a part of the results.

Target: Probable G-protein coupled receptor 32 (Homo sapiens) (UniProt O75388)
UniProt O75388, sequence (O75388 whole entry, looked up): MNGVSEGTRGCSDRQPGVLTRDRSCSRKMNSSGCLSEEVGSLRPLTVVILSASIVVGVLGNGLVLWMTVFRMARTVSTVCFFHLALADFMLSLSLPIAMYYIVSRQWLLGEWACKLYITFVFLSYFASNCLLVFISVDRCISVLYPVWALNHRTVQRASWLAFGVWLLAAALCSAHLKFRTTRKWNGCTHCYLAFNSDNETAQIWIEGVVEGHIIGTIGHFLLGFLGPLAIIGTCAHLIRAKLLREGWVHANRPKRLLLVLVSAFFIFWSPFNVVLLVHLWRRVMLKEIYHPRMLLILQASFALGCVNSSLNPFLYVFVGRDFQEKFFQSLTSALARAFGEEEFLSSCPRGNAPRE
Assay: qHTS for Agonists of Human Resolvin D1 Receptor DRV1; note: 0% is about no effect
Conditions: CHO-K1 GPR32 beta-arrestin PathHunter luminescence, 90 min; at 76.9 µM; stronger effect = higher value; zero percent set by DMSO-only wells
Method in brief: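 PathHunter enzyme-fragment complementation, CHO-K1 GPR32 stable line; 2,500 cells/well, overnight attach; cpd 90 min 37 °C 5% CO2; detection reagent 1 h RT; chemiluminescence. DMSO = EC0.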

| SMILES | activation |
| --- | --- |
| Cc1ccccc1OCC(=O)Nc1ccc(OCc2cc(=O)n3ccccc3n2)cc1 | inactive: -17.9% |
| O=C(CSc1nc2c(c(=O)[nH]1)CN(Cc1ccc3c(c1)OCO3)CC2)Nc1cc(F)ccc1F | inactive: 37.1% |
| COc1cccc(COC(=O)c2nn(-c3ccccc3)nc2N)c1 | inactive: -4.28% |
| CCC(CC)C(=O)Nc1cccc(-c2nc3cccnc3s2)c1 | inactive: -9.07% |
| CCc1ccc(NC(=O)N2CC=C(c3c[nH]c4ccccc34)CC2)cc1 | inactive: -6.98% |
| CCOc1ccc(-c2nc(Cn3c(=O)cc(-c4ccccc4)c4c(C)nn(C)c43)c(C)o2)cc1OC | inactive: -1.68% |
| COc1cc(OC)c(NC(=O)C(C)n2c(=O)cc(-c3ccccc3)c3c(C)nn(C)c32)cc1Cl (stereo not drawn) | inactive: -12.8% |
| COc1ccccc1CCNC(=O)c1cc2c(=O)n3cccc(C)c3nc2n1C | inactive: -2.14% |
| CC(=O)/C=C1\C(=O)N(C)c2ccccc21 | inactive: -59.6% |
| CNC(=O)C1CCC(Cn2c(=O)c3sccc3n(Cc3ccccc3)c2=O)CC1 (stereo not drawn) | inactive: -1.94% |
| Cc1csc2nc(COC(=O)c3ccccc3NC(=O)c3ccccc3Cl)cc(=O)n12 | inactive: 1.98% |
| CCOC(=O)c1[nH]c(C)c(CCC(=O)Nc2cc(Cl)ccc2C)c1C | inactive: -9.71% |
| COc1ccc(C(=O)NCC(c2cccnc2)N2CCc3ccccc3C2)cc1 (stereo not drawn) | inactive: -8.14% |
| CCN(CC)c1ccc(NC(=O)CCS(=O)(=O)c2cccc3nsnc23)c(C)c1 | inactive: -12.8% |
| Cc1ccc(CNC(=O)C2CCN(c3nn4cc(-c5ccc(F)cc5)nc4s3)CC2)cc1 | inactive: -7.73% |
| Cc1cc(S(=O)(=O)Nc2cc3c(cc2C)n(C)c(=O)c(=O)n3C)ccc1F | inactive: -7.82% |
| CCSC1=NC2(CCN(C(=O)NC3CCCCC3)CC2)N=C1c1ccc(C)cc1 | inactive: 2.81% |
| CCOc1ccccc1NC(=O)c1c(NC(=O)C(C)Oc2cccc(Cl)c2)sc2c1CCCCC2 (stereo not drawn) | inactive: 8.05% |
| Cc1cc(C)c2c(n1)nn1c(C)c(CCC(=O)Nc3ccc(C)c(Cl)c3)c(C)nc21 | inactive: -12.8% |
| Cc1cn2c(=O)cc(COC(=O)c3cccc(NC(=O)C(C)Oc4ccccc4)c3)nc2s1 (stereo not drawn) | inactive: -1.05% |
| Cc1ccccc1NC(=O)CSc1ncc2c(n1)-c1ccccc1N(C)S2(=O)=O | inactive: 34.2% |

| SMILES | activation |
| --- | --- |
| CCc1cc2c(cc3c(=O)n(CC(=O)NCc4cccc(Cl)c4)nc(CC)n32)s1 | inactive: -7.89% |
| CCC1=Nc2cc(C(=O)NCCc3ccccc3)ccc2Sc2ccc(Cl)cc21 | inactive: -3.73% |
| Cc1cccc(S(=O)(=O)c2cn(Cc3ccccc3)c3cc(N4CCC(C)CC4)c(F)cc3c2=O)c1 | inactive: -20.9% |
| CCOc1ccc(CC(=O)Nc2c(C(=O)c3ccc(Cl)cc3)oc3ccccc23)cc1OCC | inactive: 7.38% |
| CCn1c(Oc2ccc(F)cc2F)nc2c1c(=O)n(C)c(=O)n2C | inactive: 11.2% |
| CC1=C(C(=O)Nc2ccc(Cl)cc2)C(c2cccs2)n2nc(SCc3cccc(Cl)c3)nc2N1 (stereo not drawn) | inactive: 8.15% |
| COc1cccc(CNC(=O)C(=O)NCC(c2cccs2)S(=O)(=O)c2cccs2)c1 (stereo not drawn) | inactive: -13.6% |
| COc1cccc(OCc2nc3ccccc3n2Cc2ccccc2)c1 | inactive: -28.4% |
| COc1ccc(-n2nc3cc(C)c(NC(=O)COc4cccc(C)c4)cc3n2)cc1 | inactive: 28.8% |
| COc1ccc(Nc2cc(C(=O)NCCCN(C)Cc3ccccc3)c3ccccc3n2)cc1OC | inactive: -25.1% |
| COc1cccc(CNC(=O)C2CCC(CNS(=O)(=O)c3cccs3)CC2)c1 (stereo not drawn) | inactive: 36.6% |
| O=c1c(S(=O)(=O)c2ccccc2)cn(Cc2ccc(F)cc2)c2cc(N3CCCC3)c(F)cc12 | inactive: -2.58% |
| Cc1ccc(OCc2cc(=O)n3c4c(sc3n2)CCCC4)c(C)c1 | inactive: 22.7% |
| CCCC(=O)N(c1ccc2oc3c(c2c1)CCCC3)S(=O)(=O)c1ccc(CC)cc1 | inactive: -6.77% |
| COc1ccc(OC)c(-n2c(=O)[nH]c3cc(C(=O)NCCc4ccc(OC)c(OC)c4)ccc3c2=O)c1 | inactive: 9.94% |
| COc1cccc(NC(=O)c2sc(-n3nc(C)c(Cc4ccccc4Cl)c3C)nc2C)c1 | inactive: -7.37% |
| CC1CCN(S(=O)(=O)c2ccc3c(c2)N(CC(=O)NCc2ccccc2Cl)C(=O)CO3)CC1 | inactive: -6.34% |
| Cc1ccccc1NC(=O)c1ccc(NC(=O)N2CCSc3ncccc32)cc1 | inactive: -0.896% |
| COc1ccc(NCc2nc3ccccc3n2CCOc2ccccc2C)cc1 | inactive: -15.5% |
| Cc1ccc(N(C)C(=O)Cn2nc(Cc3ccncc3)c3ccccc3c2=O)cc1C | inactive: -18.6% |
| Cc1ccc(CNS(=O)(=O)c2ccc(F)c(C(=O)Nc3ccc(C)c(F)c3)c2)cc1 | inactive: 7.71% |

| SMILES | activation |
| --- | --- |
| COCCn1c(C)cc(O)c(C(c2ccccc2)N2CCN(c3ccc(F)cc3)CC2)c1=O (stereo not drawn) | inactive: -0.271% |
| O=C(NCCS(=O)(=O)N1CCN(c2ccccc2F)CC1)c1cc(=O)c2ccccc2o1 | inactive: -12.1% |
| NCCCCCCCCCCN | inactive: 2.25% |
| O=C(Cn1cc(S(=O)(=O)Cc2ccc(F)cc2)c2ccccc21)NCCc1ccccc1 | inactive: -9.39% |
| CCc1ccc(-n2nc3cc(C)c(NC(=O)c4cc(Cl)ccc4OC)cc3n2)cc1 | inactive: -19.9% |
| Cc1ccc(NC(=O)c2ccc(NC(=O)N3CCSc4ncccc43)cc2)cc1Cl | inactive: 5.03% |
| Cc1ccc2c(=O)cc(C(=O)Nc3sc4c(c3C(=O)NCc3ccco3)CCC4)oc2c1C | inactive: 18.5% |
| COc1ccc(NS(=O)(=O)c2cc3[nH]c(=O)c(=O)[nH]c3cc2C)cc1OC | inactive: 6.37% |
| COc1ccc(Nc2cc(C(=O)NCCc3ccccc3)c3ccccc3n2)cc1OC | inactive: 27.6% |
| COc1ccc(OCCn2c(C3CC(=O)N(c4ccc(F)cc4)C3)nc3ccccc32)cc1 (stereo not drawn) | inactive: 30.9% |
| Cc1ccc(NC(=O)c2c(N3CCCC3=O)c3cc(C)ccc3n2C)c(C)c1 | inactive: 6.53% |
| CCC(C)NC(=O)Cn1c(=O)n(Cc2ccc(C(=O)NCCCOC)cc2)c(=O)c2ccccc21 (stereo not drawn) | inactive: -5.1% |
| COc1ccccc1Nc1cc(C)nc2nc(-c3ccccc3)nn12 | inactive: -10.6% |
| Cc1ccc(CNC(=O)Cn2ncc3c(C)n(Cc4ccc(Cl)cc4)c(C)c3c2=O)cc1 | inactive: -1.47% |
| CCCCOC(=O)c1ccc(NS(=O)(=O)c2c(C)nc3scc(C)n3c2=O)cc1 | inactive: -9.61% |
| CCCN(C(=O)Cn1ncc2c(=O)oc3ccccc3c21)c1cccc(C)c1 | inactive: -0.16% |
| CC(C)c1ccc(NC(=O)CSc2ncc3c(n2)-c2ccccc2N(C)S3(=O)=O)cc1 | inactive: -7.92% |
| Cc1ccc(Cl)c2sc(N3CCN(C(=O)C4CC4)CC3)nc12 | active: 73% |
| COC(=O)c1c(NC(=O)c2ccc(S(=O)(=O)N3CCCC(C)C3)cc2)sc2c1CCN(C(C)C)C2 (stereo not drawn) | inactive: -2.32% |
| CSc1ccc(CNCc2c(C(=O)O)c(C)n(Cc3ccc(F)cc3Cl)c2C)cc1 | inactive: 13.1% |
| Cc1ccccc1Cn1cc(S(=O)(=O)c2ccc(Cl)cc2)c(=O)c2cc3c(cc21)OCO3 | inactive: 15.4% |

| SMILES | activation |
| --- | --- |
| Cc1ccccc1CNC(=O)c1c(C)oc2c1C1=NCCN1C=N2 | inactive: -12.1% |
| Cc1c(NC(=O)c2nc3ccccc3n(C)c2=O)cccc1[N+](=O)[O-] | inactive: 13.2% |
| COc1cccc(N2CCN(C(=O)C3CCCN(S(=O)(=O)c4ccc(Br)s4)C3)CC2)c1 (stereo not drawn) | inactive: 17.4% |
| CCOc1ccc(CNC(=O)Cn2c(=O)c3cccn3c3ccc(F)cc32)cc1 | inactive: -7.65% |
| CCOc1ccc(OCC)c(NC(=O)C2CCCN(S(=O)(=O)c3ccc4c(c3)oc(=O)n4C)C2)c1 (stereo not drawn) | inactive: -6.88% |
| C#CCN(C)Cc1ccccc1 | inactive: 32.3% and inactive: -7.83% |
| CCN1c2ccccc2-n2cccc2C12CCN(C(=O)Nc1ccccc1C(F)(F)F)CC2 | inactive: -19.4% |
| O=C(Nc1ccc(F)c(Cl)c1)N1CCN(C(=O)c2nsc3ccccc23)CC1 | inactive: 10.9% |
| Cc1cc(C)cc(-n2c(SCC(=O)N3CCc4ccccc43)nc3c([nH]c4ccccc43)c2=O)c1 | inactive: -0.795% |
| CC(=O)Nc1ccc(Nc2ncnc3c2c(-c2ccccc2)cn3-c2ccccc2)cc1 | inactive: -30.9% |
| Cc1cccc(-c2nc(SCCCOc3ccccc3Cl)n3[nH]c(=O)cc3n2)c1 | inactive: -25.8% |
| CCn1c(C(=O)N2CCC(C(=O)N3CCN(c4cccc(C)c4C)CC3)CC2)cc2sccc21 | inactive: 16.7% |
| CCOc1ccc2nc(N3CCN(C(=O)CS(=O)(=O)c4ccc(F)cc4)CC3)sc2c1 | inactive: 43.8% |
| O=c1c2cc3c(cc2nc2sc(Nc4ccc(F)cc4F)nn12)OCO3 | inactive: 6.5% |
| Cn1nc(C(=O)N2CCN(c3ccc(Cl)cc3)CC2)c2c1-c1ccccc1SC2 | inactive: -14.1% |
| Cc1ccc(C)c(N2CCN(c3ncnc4c3nc3n4CCCCC3)CC2)c1 | inactive: -1.25% |
| O=C(C1CCCN(S(=O)(=O)c2cccs2)C1)N1CCN(c2cccc(Cl)c2)CC1 (stereo not drawn) | inactive: 14.6% |
| NC(=O)CSc1nc2c(oc3ccccc32)c(=O)n1-c1ccccc1F | inactive: 8.23% |
| O=c1[nH]c2ccccc2c2ccccc12 | inactive: -1.36% |
| c1ccc(CNc2nc3ccccc3c3nc(-c4ccccc4)nn23)cc1 | inactive: -8.02% |
